Out of some 310,000 compounds screened, about 14,000 (4.5%) showed an effect of 50% or more. The effect is printed as a negative number. This is one part of the list.
biological target: human ether-à-go-go-related gene (hERG) potassium channel (human, UniProt Q12809); test: primary screen, population patch clamp on CHO cells stably expressing hERG
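Further: peak tail current of the secondary pulse compared with the same well before compound.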

Sequence of human ether-à-go-go-related gene (hERG) potassium channel (Q12809 whole entry, looked up): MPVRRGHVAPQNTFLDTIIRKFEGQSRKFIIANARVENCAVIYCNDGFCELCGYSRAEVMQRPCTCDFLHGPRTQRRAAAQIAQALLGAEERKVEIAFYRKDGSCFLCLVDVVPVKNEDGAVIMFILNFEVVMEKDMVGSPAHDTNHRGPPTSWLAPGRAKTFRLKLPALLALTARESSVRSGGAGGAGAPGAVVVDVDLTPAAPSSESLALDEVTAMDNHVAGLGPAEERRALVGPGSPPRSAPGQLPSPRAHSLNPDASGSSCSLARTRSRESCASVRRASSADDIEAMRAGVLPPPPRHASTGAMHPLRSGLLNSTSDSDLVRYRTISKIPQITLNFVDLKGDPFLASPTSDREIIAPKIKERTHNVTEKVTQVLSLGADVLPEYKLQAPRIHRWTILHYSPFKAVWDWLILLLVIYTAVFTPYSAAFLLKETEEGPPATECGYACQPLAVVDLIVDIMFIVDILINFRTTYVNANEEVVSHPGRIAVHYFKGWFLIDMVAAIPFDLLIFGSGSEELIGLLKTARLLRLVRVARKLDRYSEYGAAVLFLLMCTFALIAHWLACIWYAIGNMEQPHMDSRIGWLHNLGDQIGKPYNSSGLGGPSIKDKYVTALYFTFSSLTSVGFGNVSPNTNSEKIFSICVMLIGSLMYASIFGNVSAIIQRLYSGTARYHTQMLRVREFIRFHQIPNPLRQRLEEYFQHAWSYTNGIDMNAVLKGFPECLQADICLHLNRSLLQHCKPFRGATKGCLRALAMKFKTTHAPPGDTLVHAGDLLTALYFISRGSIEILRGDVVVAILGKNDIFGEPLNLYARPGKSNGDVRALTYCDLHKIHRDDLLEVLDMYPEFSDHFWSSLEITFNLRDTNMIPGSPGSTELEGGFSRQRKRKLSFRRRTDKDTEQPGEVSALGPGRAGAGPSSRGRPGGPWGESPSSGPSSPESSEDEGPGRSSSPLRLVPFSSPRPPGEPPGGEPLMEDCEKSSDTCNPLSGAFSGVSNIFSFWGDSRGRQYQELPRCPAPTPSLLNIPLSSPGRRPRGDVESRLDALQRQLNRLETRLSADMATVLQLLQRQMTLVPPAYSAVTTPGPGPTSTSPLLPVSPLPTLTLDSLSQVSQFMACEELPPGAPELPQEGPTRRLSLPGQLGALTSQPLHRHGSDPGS

Q: With `O=C1NC(=S)NC(=O)C1=Cc1ccc(Br)s1` as the compound, how does the “hERG current change (%, negative = inhibition) at 10uM” value read?
A: The value was 21.2%.

Q: With `O=C(CCc1ccccc1)Nc1c(F)cccc1F` as the compound, how does the “hERG current change (%, negative = inhibition) at 10uM” value read?
A: Its value is -3.59%.

Q: `Cc1ccc(OCCCC(=O)Nc2ccc(S(=O)(=O)N3CCOCC3)cc2)cc1` was tested. Which “hERG current change (%, negative = inhibition) at 10uM” value did it give?
A: The value was -25.7%.

Q: With `O=S(=O)(Nc1cccc(CCc2ccccn2)c1)c1ccc(Cl)cc1` as the compound, how does the “hERG current change (%, negative = inhibition) at 10uM” value read?
A: The value was 2.37%.

Q: How did the “hERG current change (%, negative = inhibition) at 10uM” value turn out when `CCCn1cc(CN2CCCC(C(=O)c3ccc4c(c3)OCO4)C2)c(C)n1` (stereo not drawn) was run?
A: The value was -55.4%.

Q: How did the “hERG current change (%, negative = inhibition) at 10uM” value turn out when `CC(=O)N1CCc2ccc(NC(=O)c3c(-c4c(Cl)cccc4Cl)noc3C)cc21` was run?
A: The value was 7.21%.

Q: For `CCCN1CC=C2C(C#N)=C(N)C(C#N)(C#N)C(c3cccc(OC)c3OC)C2C1` (stereo not drawn), which “hERG current change (%, negative = inhibition) at 10uM” value is on record?
A: Its value is -4.54%.

Q: With `CN1CCN(C(=O)c2ccc(S(=O)(=O)c3ccc(Br)cc3)cc2)CC1` as the compound, how does the “hERG current change (%, negative = inhibition) at 10uM” value read?
A: The value was -37.3%.

Q: `CSc1nnc(SCC2=NNC(=O)SC2)s1` was tested. Which “hERG current change (%, negative = inhibition) at 10uM” value did it give?
A: The value was 10.1%.

Q: How did the “hERG current change (%, negative = inhibition) at 10uM” value turn out when `COc1ccccc1CNC(=O)c1cccc(C)c1[N+](=O)[O-]` was run?
A: The value was -3.33%.

Q: `Cc1ccc(S(=O)(=O)Nc2ccc3c(c2)nc(CCN2CCN(c4ccccn4)CC2)n3C)cc1` was tested. Which “hERG current change (%, negative = inhibition) at 10uM” value did it give?
A: The value was -84.6%.

Q: Which “hERG current change (%, negative = inhibition) at 10uM” value does the source give for `CSc1ccc(CN(C)CC(=O)NCc2ccc(F)cc2)cc1` here?
A: Its value is -70.1%.

Q: With `COc1cc(C(=O)NC2=C(C#N)CCC2)cc(OC)c1OC` as the compound, how does the “hERG current change (%, negative = inhibition) at 10uM” value read?
A: Its value is 9.66%.

Q: Which “hERG current change (%, negative = inhibition) at 10uM” value does the source give for `CCOc1ccc(N2C(=O)CC(N3CCN(c4ccccc4F)CC3)C2=O)cc1` (stereo not drawn) here?
A: Its value is 6.59%.

Q: `CCCNC(=O)COC(=O)c1ccc(Cl)c(S(=O)(=O)N2CCCC2)c1` was tested. Which “hERG current change (%, negative = inhibition) at 10uM” value did it give?
A: Its value is -10.7%.

Q: Which “hERG current change (%, negative = inhibition) at 10uM” value does the source give for `CCn1ccnc1[C@@H]1C[C@H]2CN(Cc3ccccc3OC)C(=O)[C@]23CCCN13` here?
A: Its value is 21.9%.

Q: How did the “hERG current change (%, negative = inhibition) at 10uM” value turn out when `Cc1cc([N+](=O)[O-])ccc1NC(=O)CSc1nccc(=O)[nH]1` was run?
A: Its value is 18.7%.

Q: Which “hERG current change (%, negative = inhibition) at 10uM” value does the source give for `NS(=O)(=O)c1ccc(N=Nc2c(O)[nH]c3ccc(Br)cc23)cc1` here?
A: Its value is 18.3%.

Q: For `COc1cc(C(=S)N2CCOCC2)cc(OC)c1OC(=O)c1cccc(C)c1`, which “hERG current change (%, negative = inhibition) at 10uM” value is on record?
A: The value was -8.37%.

Q: With `CCS(=O)(=O)c1nc(S(=O)(=O)c2ccc(C)cc2)c(N2CCC(O)CC2)s1` as the compound, how does the “hERG current change (%, negative = inhibition) at 10uM” value read?
A: Its value is 1.7%.

Q: Which “hERG current change (%, negative = inhibition) at 10uM” value does the source give for `Oc1ccc(Cl)cc1CNn1cnnc1` here?
A: Its value is 22%.

Q: For `Cc1ccc(NC(=O)CCc2nnc3ccc(NCc4ccco4)nn23)cc1F`, which “hERG current change (%, negative = inhibition) at 10uM” value is on record?
A: Its value is -70.9%.

Q: Which “hERG current change (%, negative = inhibition) at 10uM” value does the source give for `COc1ccc(C(=O)Nc2nnc(SCC(=O)NCc3ccco3)s2)cc1OC` here?
A: The value was -1.6%.

Q: Which “hERG current change (%, negative = inhibition) at 10uM” value does the source give for `CC(C)(C)C(=O)NC1(C(F)(F)F)N=C2SCCN2C1=O` (stereo not drawn) here?
A: The value was -4.77%.

Q: With `CC(C)CCn1c(=O)c2ccccc2n2c(CCl)nnc12` as the compound, how does the “hERG current change (%, negative = inhibition) at 10uM” value read?
A: Its value is -32.8%.

Q: `COc1ccc(OC)c(C2NC(=O)c3sc(=S)n(-c4ccccc4)c3N2)c1` (stereo not drawn) was tested. Which “hERG current change (%, negative = inhibition) at 10uM” value did it give?
A: The value was -27%.

Q: For `O=[N+]([O-])c1ccc(C2=NN(CCO)C(=Nc3ccc(OC(F)(F)F)cc3)SC2)cc1`, which “hERG current change (%, negative = inhibition) at 10uM” value is on record?
A: The value was -13.5%.

Q: For `CNC(=O)N(C)c1ccc(C(O)(C(=O)OC)C(F)(F)F)cc1` (stereo not drawn), which “hERG current change (%, negative = inhibition) at 10uM” value is on record?
A: Its value is 4.55%.

Q: Which “hERG current change (%, negative = inhibition) at 10uM” value does the source give for `CCOC(=O)c1cc(-c2ccccc2)sc1NC(=O)C(C)OC(=O)c1cccc(S(=O)(=O)N(C)C)c1` (stereo not drawn) here?
A: The value was 7.41%.

Q: `Cl.O=C(Oc1cccnc1)c1ccc(Cl)cc1` was tested. Which “hERG current change (%, negative = inhibition) at 10uM” value did it give?
A: Its value is -21.3%.

Q: For `NC(=O)COC(=O)c1cc(=O)[nH]c2ccc(S(=O)(=O)Nc3ccc(F)cc3)cc12`, which “hERG current change (%, negative = inhibition) at 10uM” value is on record?
A: Its value is 21.9%.

Q: How did the “hERG current change (%, negative = inhibition) at 10uM” value turn out when `CCN(CC)S(=O)(=O)c1cccc(C(=O)Nc2nc3cc4c(cc3s2)OCCO4)c1` was run?
A: Its value is 0.652%.

Q: For `CC(OC(=O)Cn1[nH]c(=O)c2ccccc2c1=O)C(=O)Nc1ccc(Cl)cn1` (stereo not drawn), which “hERG current change (%, negative = inhibition) at 10uM” value is on record?
A: The value was -8.11%.

Q: For `COc1ccccc1C(=O)Nc1ccc(CN2CCCCC2)cc1`, which “hERG current change (%, negative = inhibition) at 10uM” value is on record?
A: Its value is -28.4%.

Q: With `CCCCn1ccnc1C(=O)c1ccc(S(=O)(=O)N(CCOC)CCOC)cc1` as the compound, how does the “hERG current change (%, negative = inhibition) at 10uM” value read?
A: Its value is -1.47%.

Q: For `Cc1onc(-c2ccccc2Cl)c1C(O)c1ccc(F)cc1` (stereo not drawn), which “hERG current change (%, negative = inhibition) at 10uM” value is on record?
A: The value was 9.8%.

Q: `COc1ccc(S(=O)(=O)N2CCOCC2)c(C)c1C` was tested. Which “hERG current change (%, negative = inhibition) at 10uM” value did it give?
A: The value was 5.99%.

Q: For `COc1ccc(N2CCN(c3ccc(N4C(=O)CC(C)C4=O)cc3[N+](=O)[O-])CC2)cc1` (stereo not drawn), which “hERG current change (%, negative = inhibition) at 10uM” value is on record?
A: The value was -0.69%.

Q: For `COc1cccc(-c2ncc3ccccc3c2COC(=O)CCCC(=O)O)c1`, which “hERG current change (%, negative = inhibition) at 10uM” value is on record?
A: Its value is -2.2%.

Q: For `NC(=S)Nc1ccccc1Br`, which “hERG current change (%, negative = inhibition) at 10uM” value is on record?
A: Its value is -10.5%.

Q: For `CCOc1cc(NC(=O)C2CCCCC2)c(OCC)cc1NC(=O)c1ccco1`, which “hERG current change (%, negative = inhibition) at 10uM” value is on record?
A: Its value is 9.17%.

Q: With `CC1CCCN(C(c2cccs2)c2nnnn2Cc2ccccc2)C1.Cl` (stereo not drawn) as the compound, how does the “hERG current change (%, negative = inhibition) at 10uM” value read?
A: The value was -13%.

Q: For `Cc1ccc(CC(=O)N2CCN(c3cccc(C(F)(F)F)c3)CC2)cc1`, which “hERG current change (%, negative = inhibition) at 10uM” value is on record?
A: The value was -9.64%.

Q: For `Cc1ccccc1OCC(=O)NCC1CCCO1` (stereo not drawn), which “hERG current change (%, negative = inhibition) at 10uM” value is on record?
A: Its value is 13.3%.

Q: With `N#Cc1c(F)cccc1N1CCC(C#N)CC1` as the compound, how does the “hERG current change (%, negative = inhibition) at 10uM” value read?
A: Its value is 8.29%.

Q: `NC(=O)C1CCN(C(=O)c2ccc(C(F)(F)F)cc2)CC1` was tested. Which “hERG current change (%, negative = inhibition) at 10uM” value did it give?
A: Its value is 7.3%.

Q: `O=C(CN1CCOc2ccccc21)N1CCC(Cc2ccccc2)CC1` was tested. Which “hERG current change (%, negative = inhibition) at 10uM” value did it give?
A: Its value is -26.3%.

Q: `Cc1cccc2c3c([nH]c12)C(=O)CC(C)(C)S3` was tested. Which “hERG current change (%, negative = inhibition) at 10uM” value did it give?
A: The value was 36.5%.

Q: With `CC1=C(C(=O)NC2CCCc3c2cnn3-c2ccc(F)cc2F)OCCO1` (stereo not drawn) as the compound, how does the “hERG current change (%, negative = inhibition) at 10uM” value read?
A: Its value is 17.9%.

Q: Which “hERG current change (%, negative = inhibition) at 10uM” value does the source give for `CN1CCN(c2ccc(S(=O)(=O)N3CCCCC3)cc2NC(=O)/C=C/c2ccc(Cl)c([N+](=O)[O-])c2)CC1` here?
A: The value was -17.4%.

Q: Which “hERG current change (%, negative = inhibition) at 10uM” value does the source give for `COC(=O)CNC(=O)COc1ccccc1` here?
A: The value was 7.53%.

Q: For `CCCNC(=O)/C=C/c1ccc(S(=O)(=O)Nc2ccccc2OC)cc1`, which “hERG current change (%, negative = inhibition) at 10uM” value is on record?
A: Its value is -1.75%.

Q: For `COc1ccc(CN2CCNC(=O)C2CC(=O)NC2CCCCC2)c(OC)c1` (stereo not drawn), which “hERG current change (%, negative = inhibition) at 10uM” value is on record?
A: Its value is -0.841%.

Q: With `S=c1[nH]nc(-c2cc3c(s2)-c2ccccc2CC3)o1` as the compound, how does the “hERG current change (%, negative = inhibition) at 10uM” value read?
A: Its value is 13.1%.

Q: With `CCOC(=O)N1CCC(NC(=O)c2cnc3n(c2=O)CCS3)CC1` as the compound, how does the “hERG current change (%, negative = inhibition) at 10uM” value read?
A: Its value is 6.23%.

Q: How did the “hERG current change (%, negative = inhibition) at 10uM” value turn out when `CC(=O)c1c(C(C)=O)c(C)n(-c2nc(-c3ccc(Br)cc3)c(C)s2)c1C` was run?
A: The value was 20%.

Q: With `CCC(=O)Nc1ccccc1C(=O)OCC(=O)c1ccccc1` as the compound, how does the “hERG current change (%, negative = inhibition) at 10uM” value read?
A: The value was -28.1%.

— article PMC4336329 (PLoS ONE, 2015)
